According to the RNAGym collection of RNA variant scans (doi:10.7554/elife.90254):
The source gives no read counts; variants with many changes may rest on few reads.

B1: LINE1-mini (parent)
chain: GGCAGAGCUCAACACAGCGUGGCAAAGUGGCUGUGGCUAGACUGCC

Variants of: B1
Assay: self-cleavage, relative activity (ratio to wild type); higher = more cleavage; in vitro, sequencing; the parent is a self-cleaving ribozyme

Row | Variant | self-cleavage
1 | GGCAGAGCUCAACACAGCGUGGCAAAGUGUCUGUGGCUAUAUUGCC [G30U G40U C42U] | 0.03
2 | GGCAGAGCUCAACACAGCGUGGCAAAGUUGCUGUGGCCAGACUGAC [G29U U38C C45A] | 0.09
3 | GGCAGAGCUCAACACAGCGUGGCAAAGUGUGUGUGUCUAGAUUGCC [G30U C31G G36U C42U] | 0.02
4 | GGCAGAGCUCAACACAGCGUGGCAAAGUGCCUGUGGCUGGACUGAU [G30C A39G C45A C46U] | 0.1
5 | GGCAGAGCUCAACACAGCGUGGCAAAGUGAGUGUAGCUAGACUGCU [G30A C31G G35A C46U] | 0.03
6 | GGCAGAGCUCAACACAGCGUGGCAAAGUGUCUGUGGGUAGACCGCC [G30U C37G U43C] | 0.11
7 | GGCAGAGCUCAACACAGCGUGGCAAAGUUGCUGUGGCAAGACUGGC [G29U U38A C45G] | 0.11
8 | GGCAGAGCUCAACACAGCGUGGCAAAGUGCGUGUAGCUAGACUGCC [G30C C31G G35A] | 0.03
9 | GGCAGAGCUCAACACAGCGUGGCAAAGUGCCUGUGACUAGACUGCU [G30C G36A C46U] | 0.06
10 | GGCAGAGCUCAACACAGCGUGGCAAAGUGGAUGUGGCUCGACUGCA [C31A A39C C46A] | 0.01
11 | GGCAGAGCUCAACACAGCGUGGCAAAGUGCCUGUGGUUAGACUGGC [G30C C37U C45G] | 0.04
12 | GGCAGAGCUCAACACAGCGUGGCAAAGUGACUGUGUCUAGAUUGCC [G30A G36U C42U] | 0.1
13 | GGCAGAGCUCAACACAGCGUGGCAAAGUGUCUGUGGAUAGACUGCG [G30U C37A C46G] | 0.02
14 | GGCAGAGCUCAACACAGCGUGGCAAAGUGUCGGUGGCUAGACUCCC [G30U U32G G44C] | 0.06
15 | GGCAGAGCUCAACACAGCGUGGCAAAGUGCCUGUGGUUAGAAUGCC [G30C C37U C42A] | 0.09
16 | GGCAGAGCUCAACACAGCGUGGCAAAGUGUGUGAGGCUCGGCUGAC [G30U C31G U34A A39C A41G C45A] | 0.01
17 | GGCAGAGCUCAACACAGCGUGGCAAAGUGCCUGUGGCCAGAAUGCC [G30C U38C C42A] | 0.03
18 | GGCAGAGCUCAACACAGCGUGGCAAAGUGUCUGUGGCAAUACUGCC [G30U U38A G40U] | 0.02
19 | GGCAGAGCUCAACACAGCGUGGCAAAGUGUCUGUGGUUAGACUUCC [G30U C37U G44U] | 0.02

Row | Variant | self-cleavage
20 | GGCAGAGCUCAACACAGCGUGGCAAAGUGCCUGCGGCUAGACUUCC [G30C U34C G44U] | 0.08
21 | GGCAGAGCUCAACACAGCGUGGCAAAGUGACUGUGGCAAUAUUGCC [G30A U38A G40U C42U] | 0.03
22 | GGCAGAGCUCAACACAGCGUGGCAAAGUGACUGUGUCUAGCCUGCC [G30A G36U A41C] | 0.02
23 | GGCAGAGCUCAACACAGCGUGGCAAAGUGACUGUGGCUAUAUUGCC [G30A G40U C42U] | 0.2
24 | GGCAGAGCUCAACACAGCGUGGCAAAGUGCCUGUGGGUAGACUACC [G30C C37G G44A] | 0.14
25 | GGCAGAGCUCAACACAGCGUGGCAAAGUGACUGUAGCUAGACUGCA [G30A G35A C46A] | 0.07
26 | GGCAGAGCUCAACACAGCGUGGCAAAGUGUCUGUCGCUAGAGUGCC [G30U G35C C42G] | 0.02
27 | GGCAGAGCUCAACACAGCGUGGCAAAGUGACUAUGGCUAGACUUCU [G30A G33A G44U C46U] | 0.19
28 | GGCAGAGCUCAACACAGCGUGGCAAAGUGCUUGUGGCAAGACUGAC [G30C C31U U38A C45A] | 0.3
29 | GGCAGAGCUCAACACAGCGUGGCAAAGUGGAUGUGGCUAGAUUGCU [C31A C42U C46U] | 0.03
30 | GGCAGAGCUCAACACAGCGUGGCAAAGUGCCUGUGGCUAGCCUGCU [G30C A41C C46U] | 0.02
31 | GGCAGAGCUCAACACAGCGUGGCAAAGUGCCUGUGGCUAUAAUGCC [G30C G40U C42A] | 0.16
32 | GGCAGAGCUCAACACAGCGUGGCAAAGUGACUAUAGCUAGACUGCC [G30A G33A G35A] | 0.32
33 | GGCAGAGCUCAACACAGCGUGGCAAAGUGUUUGUGGCGAGACUGCA [G30U C31U U38G C46A] | 0.01
34 | GGCAGAGCUCAACACAGCGUGGCAAAGUGACUGUGGCUACACUGCG [G30A G40C C46G] | 0.04
35 | GGCAGAGCUCAACACAGCGUGGCAAAGUGUCUGUGGCUACACUGAC [G30U G40C C45A] | 0.04
36 | GGCAGAGCUCAACACAGCGUGGCAAAGUGACUGUGGCUAAAGUGAC [G30A G40A C42G C45A] | 0.02
37 | GGCAGAGCUCAACACAGCGUGGCAAAGUGCCUGUAGCUUGACUGCG [G30C G35A A39U C46G] | 0.06
38 | GGCAGAGCUCAACACAGCGUGGCAAAGUGACUGUAGCUAUACUGCC [G30A G35A G40U] | 0.09

Row | Variant | self-cleavage
39 | GGCAGAGCUCAACACAGCGUGGCAAAGUGUCUGUGGCCAGACUACC [G30U U38C G44A] | 0.08
40 | GGCAGAGCUCAACACAGCGUGGCAAAGUGAAGGUGGUUAGACUGCC [G30A C31A U32G C37U] | 0.02
41 | GGCAGAGCUCAACACAGCGUGGCAAAGUGUCUGUGUCUAGACUGAC [G30U G36U C45A] | 0.03
42 | GGCAGAGCUCAACACAGCGUGGCAAAGUGACUGUUGCUAAACUGCC [G30A G35U G40A] | 0.03
43 | GGCAGAGCUCAACACAGCGUGGCAAAGUGUCUAUGGCUAGACAGCC [G30U G33A U43A] | 0.02
44 | GGCAGAGCUCAACACAGCGUGGCAAAGUGCCUGUGGCUUGGCUGCC [G30C A39U A41G] | 0.04
45 | GGCAGAGCUCAACACAGCGUGGCAAAGUGUCUGCGGCUCGACUGCC [G30U U34C A39C] | 0.01
46 | GGCAGAGCUCAACACAGCGUGGCAAAGUGUCUGUAGCAAGACUGCC [G30U G35A U38A] | 0.02
47 | GGCAGAGCUCAACACAGCGUGGCAAAGUGGAUAAGGCUAGACUGCC [C31A G33A U34A] | 0.06
48 | GGCAGAGCUCAACACAGCGUGGCAAAGUGUCUCUGGAUAGACUGCC [G30U G33C C37A] | 0.06
49 | GGCAGAGCUCAACACAGCGUGGCAAAGUGUCUGCGGCUAAACUGCC [G30U U34C G40A] | 0.03
50 | GGCAGAGCUCAACACAGCGUGGCAAAGUGGAUGUGGCUUGAUUGCC [C31A A39U C42U] | 0.02
51 | GGCAGAGCUCAACACAGCGUGGCAAAGUGUCUGAUGCUAGACUGCC [G30U U34A G35U] | 0.02
52 | GGCAGAGCUCAACACAGCGUGGCAAAGUGUCUGCUGCUGGACUGCC [G30U U34C G35U A39G] | 0.05
53 | GGCAGAGCUCAACACAGCGUGGCAAAGUGAGUGUGGCCAGACUGGC [G30A C31G U38C C45G] | 0.02
54 | GGCAGAGCUCAACACAGCGUGGCAAAGUGCCUGGGGCUACACUGCC [G30C U34G G40C] | 0
55 | GGCAGAGCUCAACACAGCGUGGCAAAGUGACUGUUACAGGACUGCC [G30A G35U G36A U38A A39G] | 0.03
56 | GGCAGAGCUCAACACAGCGUGGCAAAGUGUCUGUGGCUGGACGGCC [G30U A39G U43G] | 0.49
